Data: the RNAGym collection of RNA variant scans (doi:10.1093/nar/gkz1192)
Read counts are not given, so values of variants with three or more changes are uncertain.

B1: CPEB3 Ribozyme (parent)
chain: UAACAGGGGGCCACAGCAGAAGCGUUCACGUCGCAGCCCCUGUCAGAUUCUGGUGAAUCUGCGAAUUCUGCUGUAUAUCUC

Variants of: B1
Experiment: self-cleavage, relative activity (ratio to wild type); higher = more cleavage; in vitro, sequencing
Method in brief: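 Relative activity was defined as the cleaved/total read fraction for a variant divided by the same fraction for the unmutated ribozyme. CPEB3 self-cleaving ribozyme libraries were made by rounds of error-prone PCR, barcoded, and transcribed in vitro with T7 RNA polymerase for 5 hours at 37°C, and cleavage ran through transcription plus a 15 min DNase I step before EDTA. Illumina sequencing of template-switched reverse transcripts gave the reads, and DNA sequencing mapped the barcodes. Averages come from three batches, using variants with at least 5 reads.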
With UAACAGGGGGCCACAGCUGAAGCGUUCACGUCGCAGCUCCUGACAGAUUCUGGUGAAUCUGCGAAUUCUGCUGUAUAUCUC [A18U C38U U43A] the self-cleavage was 0.28.
UAACAGGGGGCCACAGCUGAAGCGUUCACGUCGCAGCCACCGUCAGAUUCUGGUGAAUCUGCGAAUUCUGCUGUAUAUCUC [A18U C39A U41C] showed a self-cleavage of 0.12.
UAACAGGGGGCCACAGCUGAAGCGUUCACGUCGCAGCCACUGUCAGAUCCUGGUGAAUCUGCGAAUUCUGCUGUAUAUCUC [A18U C39A U49C] gave a self-cleavage of 0.07.
Work on UAACAGGGGGCCACAGCUGAAGCGUUCACGUCGCAGCCACUGUCAGAUUCUGGUGAAUCUGCGAAUACUGCUGUAUAUCUC [A18U C39A U67A] yielded a self-cleavage of 0.21.
Work on UAACAGGGGGCCACAGCUGAAGCGUUCACGUCGCAGCCUCAGUCAGAUUCUGGUGAAUCUGCGAAUUCUGCUGUAUAUCUC [A18U C39U U41A] yielded a self-cleavage of 0.09.
Work on UAACAGGGGGCCACAGCUGAAGCGUUCACGUCGCAGCCUCCGUCAGAUCCUGGUGAAUCUGCGAAUUCUGCUGUAUAUCUC [A18U C39U U41C U49C] yielded a self-cleavage of 0.14.
UAACAGGGGGCCACAGCUGAAGCGUUCACGUCGCAGCCCAUGUCAGAUUAUGGUGAAUCUGCGAAUUCUGCAGUGUAUCUC [A18U C40A C50A U72A A75G] gave a self-cleavage of 0.06.
For UAACAGGGGGCCACAGCUGAAGCGUUCACGUCGCAGCCCAUGUCAGAUUCUGGUGAAUCUGUGAAUUCCGCUGUAUAUCAC [A18U C40A C62U U69C U80A], the self-cleavage was 0.17.
Work on UAACAGGGGGCCACAGCUGAAGCGUUCACGUCGCAGCCCAUGUCAGAUUCUGGUGAAUCUGCGAAUUCUGCUGUAUAUCUG [A18U C40A C81G] yielded a self-cleavage of 0.07.
UAACAGGGGGCCACAGCUGAAGCGUUCACGUCGCAGCCCAUGCCAGAUUCUGGUGAAUCUGCGAAUUCUGCUGUAUAUCUC [A18U C40A U43C] gave a self-cleavage of 0.08.
Work on UAACAGGGGGCCACAGCUGAAGCGUUCACGUCGCAGCCCUUGUCAGAUUCUGGUGAAUCUGCGAAUUCUGCUGUAUGUCUC [A18U C40U A77G] yielded a self-cleavage of 0.15.
In the case of UAACAGGGGGCCACAGCUGAAGCGUUCACGUCGCAGCCCUUGUCAGAUUCUGGUGAAUCUGUGAACUCUGCUGUAUAUCUC [A18U C40U C62U U66C], the self-cleavage is reported as 0.13.
For UAACAGGGGGCCACAGCUGAAGCGUUCACGUCGCAGCCCUUGUCAGAUUCUGGUGAAUCUACGAAUUCAGCUGUAUAUCUC [A18U C40U G61A U69A], the self-cleavage was 0.28.
With UAACAGGGGGCCACAGCUGAAGCGUUCACGUCGCAGCCCCUGUAAGAUUCUGGCGAAUCUGCGAAUUUUGCUGUCUAUCUC [A18U C44A U54C C68U A75C] the self-cleavage was 0.13.
In the case of UAACAGGGGGCCACAGCUGAAGCGUUCACGUCGCAGCCCCUGUCAGAUUAUGGUGAAUCUGCGAAUUCUGCCGUAUAUCAC [A18U C50A U72C U80A], the self-cleavage is reported as 0.12.
Variant UAACAGGGGGCCACAGCUGAAGCGUUCACGUCGCAGCCCCUGUCAGAUUCUGGUGAAUCUGAGAACUCUGCUGUAUACCUC [A18U C62A U66C U78C] has a self-cleavage of 0.15.
For UAACAGGGGGCCACAGCUGAAGCGUUCACGUCGCAGCCCCUGUCAGAUUCUGGUGAAUCUGAGAAUUCUGCUGUAUACCUC [A18U C62A U78C], the self-cleavage was 0.19.
UAACAGGGGGCCACAGCUGAAGCGUUCACGUCGCAGCCCCUGUCAGAUUCUGGUGAAUCUGUGAAUUCUACUGUAUAUCUC [A18U C62U G70A] showed a self-cleavage of 0.17.
For UAACAGGGGGCCACAGCUAUAGCGUUCACGUCUCAGCCCCUGUCAGAUUCUGGUGAAUCUGCGAAUUCUGCUGUAUAUCUC [A18U G19A A20U G33U], the self-cleavage was 0.15.
Variant UAACAGGGGGCCACAGCUAAGGCGUUCACGUCGCAGCCCCAGUCAGAUUCUGGUGAAUCUGCGAAUUCUGCUGUAUAUCUC [A18U G19A A21G U41A] has a self-cleavage of 0.1.
In the case of UAACAGGGGGCCACAGCUAAAGCGCUCACGUCGCAGCCCCUGUCAGAUUCUGGUGAAUCUGCGAAUACUGCUGUACAUCUC [A18U G19A U25C U67A U76C], the self-cleavage is reported as 0.16.
Variant UAACAGGGGGCCACAGCUCAAGCGUUCACGUCGCAGCCCCUGCCAGAUUCUGGUGAAUCUGUGAAAUCUGCUAUAUAUCUC [A18U G19C U43C C62U U66A G73A] has a self-cleavage of 0.08.
In the case of UAACAGGGGGCCACAGCUUAAGCGUUCGCGUCGCAGCCCCUGUCCGAUUCAGGUGAAUCUGCGAAUUCUGCUGUAUAUCUC [A18U G19U A28G A45C U51A], the self-cleavage is reported as 0.15.
Variant UAACAGGGGGCCACAGCUUAAGCGUUCACGUCGCAGUCCCUGUCAGAUUCUGGUGAAUCUGCGAAUUCUGCUGUAUAUCUC [A18U G19U C37U] has a self-cleavage of 0.12.
With UAACAGGGGGCCACAGCUUAAGCGUCCACGUCGCAGCCCCUGUCAGAUUCUGGUGAAUCUGCGAAUUCUGCUGUAUAUCUC [A18U G19U U26C] the self-cleavage was 0.16.
UAACAGGGGGCCACAGCUUAAGCGUUCACGUCGCAGCCCCUGUCAGAUUCUGGUGAAUCUGCGAAUUCCGCUGUUUAUCUC [A18U G19U U69C A75U] gave a self-cleavage of 0.11.
UAACAGGGGGCCACAGCUGAACCGUUCACGUCGCAGCCUCUGCCAGAUUCAGGUGAGUCUGCGAAUUCUGCUGUAUACCUC [A18U G22C C39U U43C U51A A57G U78C] showed a self-cleavage of 0.05.
Variant UAACAGGGGGCCACAGCUGAACCGUUCACGUCGCAGCCCCUGUCAGAUUCUGGUGAAUAUGCGAAUUCUGCUGUAUAUCUC [A18U G22C C59A] has a self-cleavage of 0.08.
Variant UAACAGGGGGCCACAGCUGAACCGUUCACACCGCAGCCCCUGUCAGAUUCUGGUGAACCUGCGAAUUCUGCUGUAUAUCUC [A18U G22C G30A U31C U58C] has a self-cleavage of 0.11.
Work on UAACAGGGGGCCACAGCUGAAUCGUUCACGUCGCAGCCCCUGCCAGAUUCUGGUGAAUCUGCGAAUUCUGCUGUAUACCUC [A18U G22U U43C U78C] yielded a self-cleavage of 0.14.
Variant UAACAGGGGGCCACAGCUGAAGCAUUCACGUCGCAGCCCCUGUCAGAUUCUGGUGGAUCUGCGAAUUCUGCUGUAUAUCUC [A18U G24A A56G] has a self-cleavage of 0.15.
UAACAGGGGGCCACAGCUGAAGCACUCACGUCGCAGCCCCUGACAGAUUCUGGUGAAUCUGCGAAUUCUGCUGUAUAUCUC [A18U G24A U25C U43A] gave a self-cleavage of 0.25.
Work on UAACAGGGGGCCACAGCUGAAGCAUUCACGACGCAGCCCCUGUCAGAUUCUGGUGAAUCUGCGAAUUCUGCUGUACUUCUC [A18U G24A U31A U76C A77U] yielded a self-cleavage of 0.12.
UAACAGGGGGCCACAGCUGAAGCAUUCACGUCGCAGCCCCUGCCAGAUUCUGGUGAAUCUGCGAAUUCUGCUGUAUAUCUC [A18U G24A U43C] showed a self-cleavage of 0.19.
